# Measurements from ChEMBL document CHEMBL1201862, “PubChem BioAssay data set” (2004).
#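 The compound was tested at five concentrations on cells cultured in 96-well plates, with a 48-hour exposure period. Abbreviation: GI50, concentration required for 50% inhibition of growth.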 The source made the active and inactive calls. No stated cut-off is given here; in the data, active = GI50 up to about 1.1 µM and inactive = higher.
# Tested on: NCI-H322M
# Experiment: inhibition of tumour cell growth, NCI panel, 48 h
row,SMILES,GI50
1,COc1ccc(OCC(=O)O)c2c1CCC(C)C2=O (stereo not drawn),inactive: > 100 µM
2,COc1cccc(NCC(=O)Nn2c(-c3ccccc3)nc3ccccc3c2=O)c1,inactive: > 100 µM
3,O=C1NC(Nc2ccccc2)=NC(C(F)(F)F)(C(F)(F)F)N1,inactive: 57.7 µM
4,CC1=C(C2=C(C)C(=O)C(=O)c3cc(C)ccc32)c2ccc(C)cc2C(=O)C1=O,inactive: 1.69 µM
5,CCCCOCCOCCOC1=CC(=O)c2c(O)ccc(O)c2C1=O,inactive: 1.69 µM
6,CC(=O)NCCCCNCCCNC(C)=O,inactive: > 100 µM
7,Cc1ccc(S(=O)(=O)N/N=C2/CC[C@H](C(C)(C)C)C[C@@H]2C)cc1,inactive: 17.7 µM
8,Cc1n(CC(C)C)c2c([n+]1C)C(=O)c1ccccc1C2=O,active: 0.237 µM
9,NC(=O)c1ccccc1NC(=O)C(=O)Cc1nc2ccccc2nc1O,inactive: 86.5 µM
10,CCOC(=O)c1c(-c2ccc(OC)cc2)ccn1C,inactive: > 10 µM
11,O=C1c2ccccc2C(=O)c2c1ccc1c2N=C(c2ccc(F)cc2)CC(c2ccc(Cl)c(Cl)c2)N1 (stereo not drawn),inactive: 16.4 µM
12,O=C(Nn1c(-c2ccccc2)nc2ccccc2c1=O)c1ccc(CS)cc1,inactive: > 100 µM
13,Cc1cc2nc(N3C(=O)/C(=C/c4ccc(Cl)cc4)N=C3c3ccccc3)sc2cc1C,inactive: 50 µM
14,CCOC(=O)C1Cc2ccc(C)cc2C1=O (stereo not drawn),inactive: > 100 µM
15,CCOC(=O)c1c(C)cc(=O)n2c1[nH]c1ccccc12,inactive: > 100 µM
16,c1ccc(COc2ccc3[nH]c4c5c6ccccc6nc-5c[nH]c4c3c2)cc1,inactive: 19.4 µM
17,CN(CCCN=C=S)CCCN1c2ccccc2CCc2ccccc21,inactive: 1.71 µM
18,CN(C)CCn1cnc2sc3ccccc3c21,inactive: > 100 µM
19,CC(=O)OCC1OC(O[C@@H]2C[C@H]3C(C)(C)[C@@H](OC(C)=O)CC[C@]3(C)[C@H]3CC[C@]45C[C@]4(CC[C@H]5[C@@H](C)C[C@@H](O)[C@H](O)C(C)(C)F)[C@@]32C)C(O)C(O)C1O (stereo partly drawn),inactive: 1.64 µM
20,Clc1cc(Cl)c2c(Cl)cc(Cl)c3c2c1N=S=N3,inactive: 86.3 µM
21,O=S(=O)(N/C(=N\O)Nc1ccc(Cl)cc1)c1cc2ccccc2o1,inactive: 24.5 µM
22,C=C1C(=O)O[C@H]2C[C@@H]1[C@@H](O)[C@H](O)[C@@H](C)CCCC(C)=CCC[C@@]2(C)O,inactive: > 100 µM
23,CCOC(=O)c1cc2nc3ccccc3c(=O)n2c2ccccc12,inactive: > 10 µM
24,CCCCc1ccc2[n+](c1)C(C(=O)OCC)=PC2 (stereo not drawn),inactive: > 100 µM

row,SMILES,GI50
1,C[C@H](CCC1=NCCN1)[C@H]1CC[C@H]2[C@@H]3[C@H](O)C[C@@H]4C[C@H](O)CC[C@]4(C)[C@H]3CC[C@]12C,inactive: 14.5 µM
2,Cc1ccc2sc3cc(=O)cc(C)c-3nc2c1,inactive: 97.3 µM
3,CCCCCCCCCC(=O)CC(=O)c1c(O)cc(O)cc1O,inactive: 33.7 µM
4,O=C(N/N=C(COc1ccccc1Cl)\N=C\c1ccncc1)c1ccncc1,inactive: > 100 µM
5,Nc1nc(N)c2cc(Sc3ccc4ccccc4c3)ccc2n1,inactive: 1.6 µM
6,COc1cc([N+](=O)[O-])c(S(=O)(=O)O)cc1NS(=O)(=O)c1ccc(C)cc1,inactive: > 100 µM
7,OC[C@H](O)[C@@H](OCc1ccccc1)[C@H](NCc1ccccc1)c1cccs1,inactive: > 100 µM
8,c1ccc2c(c1)[nH]c1c[nH]c3c4cccnc4nc-3c12,inactive: 16.1 µM
9,O=C(Nc1ccc(N2C(=O)CSC2c2cccs2)cc1)c1ccc(N2C(=O)CSC2c2cccs2)cc1 (stereo not drawn),inactive: > 100 µM
10,CCN(CC)c1ccc2c(c1)Oc1ccc(N(CC)CC)cc1C21Oc2ccccc2-c2c1c1ccccc1n2CC (stereo not drawn),inactive: 3.66 µM
11,CCOC(=O)c1cc(-c2ccc(Cl)cc2)c([N+](=O)[O-])n1C,inactive: > 10 µM
12,[O-][S+]1c2ccccc2N=C(c2ccc3ccccc3c2)CC1C1=CC=CCC1 (stereo not drawn),inactive: 23.2 µM
13,CC(C)[Si](OC1=C(C(=O)Nc2ccccc2Cl)CCCCC1)(C(C)C)C(C)C,inactive: > 100 µM
14,C=CCCC(=O)CC(=O)OCc1ccccc1,inactive: > 100 µM
15,C=CCN1C(=O)CNC1=S,inactive: > 100 µM
16,O=c1[nH]c(C2CCCCC2)nc2ccc(Cl)cc12,inactive: > 100 µM
17,CC(=O)Nc1ccc(C(=O)NN2C(=O)CSC2c2ccccc2)cc1 (stereo not drawn),inactive: > 100 µM
18,C=CCCC(=O)CC(O)(C(F)(F)F)C(F)(F)F,inactive: > 100 µM
19,C/C=C/OC1C(C2COC(C)(C)O2)OC2OC(C)(C)OC21 (stereo not drawn),inactive: > 100 µM
20,CCc1ncc(C(C)(O)c2ccccc2)n1Cc1ccccc1 (stereo not drawn),inactive: 35.5 µM
21,CNC1=Nc2ccc(Cl)cc2C(c2ccccc2)=NN1C,inactive: > 100 µM
22,CCCCCCCSCC1OC(n2cnc3c(N)ncnc32)C(O)C1O (stereo not drawn),inactive: 57.8 µM
23,COc1ccc(/C=C/c2cc(O)cc(OC3OC(CO)C(O)C(O)C3O)c2)cc1O (stereo not drawn),inactive: > 100 µM
24,O=C(CN1CCCC1)Nc1ccc2sc3ccccc3c(=O)c2n1,inactive: 20 µM

row,SMILES,GI50
1,CCOC(=O)C(=O)Nc1nc2c(OCC)cccc2s1,inactive: > 100 µM
2,N=C(N)N/N=C/c1c(-c2ccc(Cl)cc2)nc2n1CCS2,inactive: 14.2 µM
3,Cn1nnc2c(C(N)=S)ncn2c1=O,inactive: > 100 µM
4,NCc1ccccc1.O=C(O)NCc1ccccc1,inactive: 33.3 µM
5,CN1CCOC1c1ccccc1O (stereo not drawn),inactive: > 100 µM
6,COC(=O)c1ccc(C)cc1CC1Cc2cccc(C)c2C1=O (stereo not drawn),inactive: 25 µM
7,O=C1NC(=O)/C(=C\c2ccncc2)N1,inactive: > 100 µM
8,COc1ccc(-c2nnc3n(Cc4ccccc4)c4ccccc4n3c2=O)cc1,inactive: > 100 µM
9,CC1OC(OC2C(O[C@H]3CC[C@@H]4C(=CC[C@@H]5[C@@]4(C)C(=O)C[C@]4(C)[C@@H]([C@H](C)CC[C@@H](O)C(C)(C)O)CC[C@@]54C)C3(C)C)OC(CO)C(O)C2O)C(O)C(O)C1O (stereo partly drawn),inactive: > 100 µM
10,N#CCCN(C(=O)Nc1ccc(NC(=O)N(CCC#N)c2ccccc2)cc1)c1ccccc1,inactive: > 100 µM
11,O=C1c2ccccc2C(=O)c2c1ccc1c2OCO1,inactive: > 100 µM
12,N#Cc1cc([N+](=O)[O-])ccc1NC(=O)C(=O)Nn1c(S)nc2ccccc2c1=O,inactive: > 100 µM
13,O=C(c1ccccc1)C1C(c2ccccc2[N+](=O)[O-])N1C1CCCCC1 (stereo not drawn),inactive: 14.9 µM
14,COC(=O)/C=C/[C@@H]1[C@H](C)N1S(=O)(=O)c1ccc(C)cc1 (stereo partly drawn),inactive: > 100 µM
15,Nc1cc(N)cc(Cc2ccccc2)c1,inactive: > 100 µM
16,N#CCN1c2ccccc2CCC1Cl (stereo not drawn),inactive: > 10 µM
17,O=C1N(Cl)C(=O)C(c2ccc(Cl)cc2)(c2ccc(Cl)cc2)N1Cl,inactive: > 100 µM
18,CCOC(=O)NC(=O)c1cn(CCCOC(=O)CCCCCCCCCCC(=O)OCCCn2cc(C(=O)NC(=O)OCC)c(=O)[nH]c2=O)c(=O)[nH]c1=O,inactive: > 100 µM
19,N#CC(C#N)C(c1ccccc1)c1ccccc1,inactive: > 100 µM
20,C#CCOCn1cnc2c(Cl)ncnc21,inactive: > 100 µM
21,C[C@H]1CN[C@@H]2[C@@H](C)[C@H]3[C@@H](C[C@H]4[C@@H]5CC[C@H]6C[C@@H](N)CC[C@]6(C)[C@H]5CC[C@]34C)O[C@@]2(O)C1,inactive: 2.51 µM
22,CCOC(=O)Cc1ccc(Nc2nc3cc(C(F)(F)F)ccc3nc2C(=O)OCC)cc1,inactive: > 100 µM
23,O=C(CSc1nnc(SCC(=O)NN=C2CCCCC2)s1)NN=C1CCCCC1,inactive: > 100 µM
24,CS/C(=N\c1ccccc1Cl)NC(=O)c1ccc(Br)cc1,inactive: 63 µM

row,SMILES,GI50
1,Cc1ccc(-n2cnc(C(=N)C#N)c2N)cc1,inactive: 27.6 µM
2,CCN(CC)CCC(=O)c1ccc(Oc2ccccc2)cc1,inactive: > 100 µM
3,O=C1c2ccccc2C(=O)c2[nH]cnc21,inactive: 67.5 µM
4,C#Cc1cccc(NC(=O)/C=C\C(=O)O)c1,inactive: > 100 µM
5,C/C(=N/NC(=O)C(N)=O)C(CC(C(=O)Nc1ccccc1C)/C(C)=N\NC(=O)C(N)=O)C(=O)Nc1ccccc1C (stereo not drawn),inactive: > 100 µM
6,CC(=O)C1C(=O)C(=O)N(c2ccc([N+](=O)[O-])cc2Cl)C1=O (stereo not drawn),inactive: > 100 µM
7,O=c1oc2ccccc2cc1/C=N/N1C(=S)N(c2ccccc2)C(=N\c2ccccc2)/C1=N/c1ccccc1,inactive: > 100 µM
8,CC1(C)OC2C(=O)OC(COCc3ccccc3)C2O1 (stereo not drawn),inactive: > 100 µM
9,Oc1cc(CN2COc3ccccc32)c(O)cc1CNC1CCCCC1,inactive: 44.1 µM
10,O=[N+]([O-])c1cc(C(F)(F)F)cc2c1SC1=Nc3ccccc3CN12,inactive: > 100 µM
11,CCn1c(SCC(=O)NNC(=S)Nc2ccc(C)cc2)nc2ccccc2c1=O,inactive: > 100 µM
12,CC(Nc1ccc(S(=O)(=O)NC(=N)N)cc1)c1c2ccccc2nc2ccccc12 (stereo not drawn),inactive: 58.3 µM
13,N=C(N)NC(=N)Nc1ccc(S(=O)(=O)O)cc1,inactive: > 100 µM
14,COC(=O)C1=CSC2(S1)C(C(=O)OC)=CSc1c2ssc1=O (stereo not drawn),inactive: 5.82 µM
15,CCOC(=O)/C(=C\NCc1ccc2c(c1)OCO2)c1nc2ccccc2[nH]1,inactive: 46 µM
16,Cc1ccc(S(=O)(=O)NC(=O)NCCc2c[nH]cn2)cc1,inactive: > 100 µM
17,COC(=O)C1C(O)CCC2CN3CCc4c([nH]c5cccc(OC)c45)C3CC21 (stereo not drawn),inactive: > 100 µM
18,COc1cc(CNC2c3cc4c(cc3C(c3cc(OC)c(OC)c(OC)c3)[C@H]3C(=O)OCC23)OCO4)cc(OC)c1OC (stereo partly drawn),active: 0.481 µM
19,Nc1cc2c(nnn2C2OC(COCc3ccccc3)C(OCc3ccccc3)C2OCc2ccccc2)c(=O)[nH]1 (stereo not drawn),inactive: 27.4 µM
20,O=C(OCc1ccccc1)N(CCCCN(CCCNC(=O)C(F)(F)F)C(=O)OCc1ccccc1)CCCNC(=O)C(F)(F)F,inactive: > 100 µM
21,CN(C)S(=O)(=O)Nc1nnc(S(N)(=O)=O)s1,inactive: > 100 µM
